From PubChem BioAssay (NCATS)
This is one part of the list. Further columns of the screen follow, without active or inactive calls. For part of these data: Compounds called inactive in the main read-out are mostly missing here. Words in brackets tell the shape of the fitted curve; partial curves, single points and poor fits give uncertain potencies.

Key:
[1] = qHTS drug screen for cell cycle checkpoint inhibitors in PARPi-resistant BRCA-mutant ovarian cancer cell lines. (AID 1963452); settings: PEO1/OlaR viability, CellTiter-Glo luminescence, 96 h
How it was run: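 PEO1, PEO4 and PEO1/OlaR ovarian cancer cells, 600 per well, exposed 96 h at 37C to a dilution series. Viability read by CellTiter-Glo luminescence, normalized to DMSO and empty wells; activity summarized as Z-AUC.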

[2] = qHTS for identification of novel therapeutic agents for treatment of microphthalmiaassociated transcription factor (MiT) renal cell carcinoma (RCC) (AID 1963991); settings: CellTiter-Glo, 48 h; for z-score: stronger effect = lower value
How it was run: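 Viability of three TFE3-fusion renal carcinoma lines measured by CellTiter-Glo after 48 h treatment with each of 1912 compounds at 11 concentrations. Responses scaled between DMSO (100%) and empty wells (0%) before curve fitting.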

[3] = measured here: PEO1 parental viability
[4] = TFE3-RCC UOK109 viability, measured here: UOK109 Z-AUC
[5] = TFE3-RCC viability, measured here: UOK124 Z-AUC
[6] = TFE3-RCC viability, measured here: UOK124 cell viability
[7] = TFE3-RCC viability, measured here: UOK145 Z-AUC
[8] = TFE3-RCC viability, measured here: UOK145 cell viability
Tags give direction and shape of the fitted curve.

Compound | AC50 [1, 3] | z-score [2, 4] | z-score [2, 5] | AC50 [2, 6] | z-score [2, 7] | AC50 [2, 8] | AC50 ([1]; measured here: PEO4 viability)
O=C(Nc1ccc(OC(F)(F)F)cc1)c1sccc1NCc1ccnc2ccccc12 | 27.5 µM [falling, partial curve, poor fit] | -0.0894 | -0.558 | 33.2 µM [falling, single point] | 0.08 | 20.9 µM [falling, partial curve, poor fit] | –
Cc1cnc(-c2cnc(NCCNc3ccc(C#N)cn3)nc2-c2ccc(Cl)cc2Cl)[nH]1 | – | -0.609 | -0.546 | 20.9 µM [falling, single point] | -0.284 | 16.6 µM [falling, partial curve] | 13.8 µM [falling, partial curve, poor fit]
Cc1cc(-c2ncc(CC(=O)Nc3ccc(-c4cnccn4)cn3)cc2C)ccn1 | 7.76 µM [falling, partial curve] | 0.219 | 0.206 | 14.8 µM [falling, partial curve] | -0.209 | 20.9 µM [falling, partial curve] | –
CN1CCN(c2cccc(Nc3nc4c(-c5ccc(S(C)(=O)=O)cc5)cccn4n3)c2)CC1 | – | 0.527 | -2.55 | 23.5 µM [falling, partial curve] | 0.384 | 18.7 µM [falling, partial curve] | 24.5 µM [falling, single point]
C[C@H]1[C@@H](OC(=O)CCC(=O)O)O[C@@H]2O[C@@]3(C)CC[C@@H]4[C@H](C)CC[C@@H]1[C@@]24OO3 | 4.36 µM [falling, partial curve] | 0.187 | 0.455 | 20.9 µM [falling, partial curve] | 0.175 | 23.5 µM [falling, partial curve] | –
